Experimental data as given in the supplement of paper PMC8047034.
Where a name gives a salt, the structure may show the parent alone. The list shows a part of the results. Many values rest on one well or one pass, so single values are uncertain.

These compounds were tested on Ov4Carbo (assay: log2 surviving fraction (library drug vs vehicle, or drug + carboplatin vs carboplatin alone; relative to plate median); ovarian cancer lines: OVCAR4 is platinum-sensitive and Ov4Carbo platinum-resistant; higher = more cell survival). Conditions: library drug concentration 10 µM; 7 days; carboplatin co-treatment 5 µM.
For Cn1ccnc1S [Methimazole (Tapazole, Northyx)], the log2 surviving fraction was 0.0596.
Work on COC1=C(OC)C(=O)C(CCCCCCCCCCO)=C(C)C1=O [Idebenone] yielded a log2 surviving fraction of -0.417.
Work on C[C@H]1C[C@H]2[C@@H]3CCC4=CC(=O)C=C[C@]4(C)[C@@]3(F)[C@@H](O)C[C@]2(C)[C@@]1(O)C(=O)CO [Betamethasone (Celestone)] yielded a log2 surviving fraction of 0.648.
For C[C@@H](O)[C@H]1C(=O)N2C(C(=O)OCOC(=O)C(C)(C)C)=C(SC3CN(C4=NCCS4)C3)[C@H](C)[C@H]12 [Tebipenem pivoxil (L-084)], the log2 surviving fraction was -0.363.
For O=C(Oc1ccccc1C(=O)O)c1ccccc1O [Sasapyrine], the log2 surviving fraction was -0.768.
COc1ccc(CC(C)NCC(O)c2ccc(O)c(NC=O)c2)cc1 (stereo not drawn) [Formoterol hemifumarate] gave a log2 surviving fraction of 1.36.
For Oc1cc(O)c(Cl)cn1 [Gimeracil], the log2 surviving fraction was 1.17.
Compound C[C@]12C=CC(=O)C=C1CC[C@H]1[C@@H]3C[C@@H](O)[C@](O)(C(=O)CO)[C@@]3(C)C[C@H](O)[C@@]12F [Triamcinolone (Aristocort)] has a log2 surviving fraction of -10.6.
For CN(C)CCOC(C)(c1ccccc1)c1ccccn1 (stereo not drawn) [Doxylamine Succinate], the log2 surviving fraction was 0.554.
With CN(C)CCC=C1c2ccccc2CCc2ccccc21 [Amitriptyline HCl] the log2 surviving fraction was -0.513.
Compound CCOC(=O)N1CCC(=C2c3ccc(Cl)cc3CCc3cccnc32)CC1 [Loratadine] has a log2 surviving fraction of -2.91.
With COc1ccc(-c2nc3cc(C4=NNC(=O)CC4C)ccc3[nH]2)cc1 (stereo not drawn) [Pimobendan (Vetmedin)] the log2 surviving fraction was -2.55.
C#C[C@]1(O)CC[C@H]2[C@@H]3CCc4cc(OC)ccc4[C@H]3CC[C@@]21C [Mestranol] showed a log2 surviving fraction of -0.628.
